Data published in the supplement of paper PMC3334620.
Whole data set: some 33,000 sequences, median “E-score (-0.5 to 0.5)” near -0.035, cut for the highest 2% near 0.35. Some of the results follow.

molecular target: T1, Pdr3 (UniProt P33200); test: PBM E-score (8-mer binding enrichment) (E-score (-0.5 to 0.5)); higher = stronger / more preferred TF binding; most listed sequences are background and not binding sites; conditions: protein concentration: 200 nM; construct: GST-full length
T1 sequence: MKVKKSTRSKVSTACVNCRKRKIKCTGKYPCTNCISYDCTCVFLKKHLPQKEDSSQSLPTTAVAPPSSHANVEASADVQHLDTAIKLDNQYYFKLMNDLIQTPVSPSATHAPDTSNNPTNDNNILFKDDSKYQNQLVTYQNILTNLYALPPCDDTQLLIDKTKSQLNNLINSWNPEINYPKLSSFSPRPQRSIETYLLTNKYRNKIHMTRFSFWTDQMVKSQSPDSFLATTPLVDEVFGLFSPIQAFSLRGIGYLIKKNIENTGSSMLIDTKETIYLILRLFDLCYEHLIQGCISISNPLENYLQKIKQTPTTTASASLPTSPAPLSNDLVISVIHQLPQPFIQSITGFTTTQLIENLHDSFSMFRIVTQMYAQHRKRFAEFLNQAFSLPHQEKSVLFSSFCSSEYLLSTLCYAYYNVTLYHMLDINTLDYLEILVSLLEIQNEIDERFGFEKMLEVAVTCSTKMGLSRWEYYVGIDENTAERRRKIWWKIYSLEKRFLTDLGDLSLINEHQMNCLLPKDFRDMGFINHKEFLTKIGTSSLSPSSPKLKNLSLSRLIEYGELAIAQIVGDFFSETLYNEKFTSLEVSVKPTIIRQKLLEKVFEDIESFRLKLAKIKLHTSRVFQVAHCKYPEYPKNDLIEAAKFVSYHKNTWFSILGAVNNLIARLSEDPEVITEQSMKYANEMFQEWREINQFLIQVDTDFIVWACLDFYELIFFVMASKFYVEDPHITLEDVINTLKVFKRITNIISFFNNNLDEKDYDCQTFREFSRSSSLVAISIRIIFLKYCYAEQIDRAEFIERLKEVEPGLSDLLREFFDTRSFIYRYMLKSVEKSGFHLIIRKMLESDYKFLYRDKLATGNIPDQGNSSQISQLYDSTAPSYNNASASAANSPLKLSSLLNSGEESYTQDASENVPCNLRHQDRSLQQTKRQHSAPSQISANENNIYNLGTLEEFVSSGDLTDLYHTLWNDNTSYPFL
Procedure, shortened: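 PURExpress in vitro transcription/translation supplied GST-tagged yeast transcription factors, either full-length or DNA-binding domain. Applied at about 100-200 nM to universal all-10-mer Agilent arrays double-stranded by primer extension, the bound protein was detected with fluorescent anti-GST. E-scores, modified Wilcoxon-Mann-Whitney statistics, were given by the Universal PBM Analysis Suite to ungapped eight-base words pooled with their reverse complements after masliner normalisation.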

In order of rising “PBM E-score” value:
1. CTACACTA  -0.352
2. AGGAGGAC  -0.331
3. CCTTCTAG  -0.328
4. CTTCACGA  -0.302
5. CACGTCTA  -0.301
6. AGGCATCA  -0.297
7. TCGTACGA  -0.293
8. GGCTCTGA  -0.279
9. AACAGTCC  -0.277
10. CCGCTAGA  -0.25
11. CTGTAGGC  -0.241
12. AGGTCACT  -0.241
13. GCACCCTA  -0.238
14. GTCGTTCA  -0.233
15. AGGCTAGA  -0.222
16. CTTACTTA  -0.215
17. ATAGAGGC  -0.211
18. CAGCGAAG  -0.211
19. AGAGGACC  -0.211
20. CTATACAG  -0.198
21. CCATATGA  -0.192
22. CACGTTAC  -0.187
23. ACTAAGTC  -0.179
24. TCTCATCA  -0.174
25. AATTGTGG  -0.173
26. GGGACTGA  -0.171
27. GGTGTAAA  -0.168
28. ACTAGGCT  -0.165
29. CGCCAGCA  -0.164
30. CAGCCCAC  -0.16
31. ACAGGTCG  -0.159
32. GGTTATAC  -0.151
33. CTGGGGGA  -0.151
34. ATGCGTAG  -0.149
35. ATACACTG  -0.149
36. CCTGCATC  -0.145
37. CGCACGAG  -0.142
38. TATAAAGA  -0.141
39. ATTCGCTA  -0.14
40. AAACCGTA  -0.139
41. CTGGACAA  -0.138
42. CCTCCTGC  -0.136
43. AGTAGGAG  -0.133
44. CAGTGGAC  -0.13
45. TCTGCCCA  -0.125
46. ACCCTATG  -0.121
47. AATGAACG  -0.121
48. CTTTTCGA  -0.119
49. GCACGCCA  -0.115
50. TAGTCGAA  -0.112
51. ACTCTCGA  -0.112
52. ACGCCCAG  -0.111
53. CGATAGCA  -0.11
54. GGTTTTGA  -0.11
55. ACGGTTGG  -0.105
56. ATATAATC  -0.102
57. AGCGAACC  -0.101
58. AGGTCTGG  -0.1
59. GCCTTCCC  -0.1
60. TATTCGCA  -0.0986
61. AATACGAG  -0.0983
62. CTGTCTGC  -0.0975
63. ATAGTTAC  -0.0969
64. CTACATAC  -0.0963
65. GTAGTAGA  -0.0908
66. CAACCCAG  -0.0889
67. CTGGATGA  -0.0872
68. AACCTTGG  -0.0868
69. ACGGTAGG  -0.0864
70. CTGGGTAC  -0.0838
71. ACTATCGC  -0.083
72. ATCACTTA  -0.0809
73. GGTTCAGA  -0.0786
74. TATATGCA  -0.0768
75. CAATGGGG  -0.0766
76. CACGCACC  -0.072
77. GACCTCAA  -0.0717
78. AGCTAGGG  -0.0664
79. TAAACCTA  -0.0653
80. ATTCAGGA  -0.065
81. AACCAACC  -0.0636
82. CTACGGCA  -0.0605
83. CTTTTGGA  -0.0505
84. AAGACACT  -0.0496
85. GTATCGAA  -0.0487
86. ACCAGTAC  -0.0471
87. ACCACCGA  -0.0441
88. CCCTCACA  -0.0423
89. ATGCCACC  -0.0409
90. AGAAGGTG  -0.0405
91. CAGGCTTA  -0.0395
92. AGATCGCA  -0.0373
93. AGTGGAAC  -0.036
94. CTCATCAA  -0.035
95. CGTATTAA  -0.0323
96. GCTGGCGA  -0.0303
97. TCTCTAAA  -0.0289
98. AACAAAAT  -0.0255
99. AAAGAACT  -0.0244
100. AAAGCTGT  -0.0166
101. AGTATCGC  -0.0155
102. ACCATCTC  -0.0136
103. TCAGATAA  -0.0119
104. CAACCGAG  -0.00908
105. CAACAACA  -0.00717
106. ACGATACT  -0.00704
107. AGAAAGCT  -0.00259
108. AGTTCTTA  0.0005
109. CGAAGAGA  0.00419
110. GCATGGCC  0.00825
111. CTCAACCA  0.0107
112. CTTCTTAC  0.011
113. CGCATTAA  0.0118
114. CACTGCTC  0.0126
115. CAGGCTCC  0.0129
116. AGGAAGCG  0.0228
117. AACCTACC  0.0283
118. GCTGGGAC  0.0306
119. CCCAGCGG  0.0332
120. GCATGGTA  0.0348
121. GTGGGGCA  0.0349
122. GACATACC  0.0363
123. CATAGTTC  0.0368
124. ATGAGAAT  0.0389
125. GCCAATAA  0.0393
126. AATGCCAG  0.0397
127. AGTGCGAT  0.0401
128. GCTCGAAA  0.0413
129. ATGATCTA  0.0443
130. ATCTCCTG  0.0507
131. GGGGTAAA  0.0581
132. CCGCTCTA  0.0682
133. AGTACGAA  0.0707
134. AATCACTG  0.0749
135. CGACCCCA  0.0751
136. CGGCGAGA  0.0811
137. CGAACACC  0.0926
138. ATTATAGC  0.0979
139. ATGCCTCA  0.0988
140. ATATACCC  0.102
141. AATCATCC  0.102
142. CGCGAGCG  0.106
143. ACAGTCCG  0.109
144. ATTGGGCC  0.113
145. GATATAGA  0.114
146. CCCACCGC  0.114
147. GATTTAAC  0.12
148. CCGATACC  0.121
149. AATCTTTC  0.13
150. CGCCGACC  0.135
151. CGACAAAA  0.141
152. CATACGGC  0.143
153. AACCATCC  0.162
154. AATCCGTA  0.165
155. GTATGAAC  0.18
156. ATTGTTCG  0.194
157. AACCACGG  0.214
158. AGGGCGCC  0.218
159. GGCGGGCA  0.219
160. ATTAATCG  0.221
161. ACACTCGG  0.221
162. GCGGGGCC  0.234
163. CCGCACCC  0.244
164. CCCGGCCC  0.247
165. CGAACAAA  0.253
166. CCGGCCAA  0.255
167. CGGTGCGC  0.264
168. TCCGTAGA  0.27
169. ACGGACCT  0.275
170. GCGGCGCC  0.353
171. CGGCATTA  0.357
172. CGGAGCAG  0.403
